# Laboratory results taken from PubChem BioAssay (Tox21).
# Where “and” joins values, the source holds several entries; their conditions need not be identical. Equal entries are not always repeated. This list was built around the results that the source calls inconclusive (neither active nor inactive); the mix of calls is not that of the screen. Where the call is inconclusive, the potency comes from a doubtful curve fit. A structure can be active in one record and inactive in another. Calls of active or inactive are those of the source. Unless noted, calls come from the whole dose curve; as a rule, active = well fitted inhibition curve with a large enough effect in the signal ratio in the repeat runs; inconclusive = weak or mixed curves, or effect the other way; inactive = flat fitted curve, though single readings scatter; the % refers to the signal ratio.
# Experiment: qHTS assay for small molecules that induce genotoxicity in human embryonic kidney cells expressing luciferase-tagged ATAD5 - cell viability (AID 651634; calls by dose curve; note: nearly all actives have a fitted effect of over 25% in size)
# Conditions: HEK293T ATAD5-luc cells viability, CellTiter-Fluor, 15.5 h; series mostly up to 83.3 µM
# Outline: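 Seeding of 2,000 HEK293T ATAD5-luciferase cells per well preceded pin-tool compound transfer. Plates sat 15.5 hr at 37C under 5% CO2, then fluorescence was read after 30 min with CellTiter-Fluor.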
# % is set by controls: 0 for no effect and ±100 for the full control effect; potency is the fitted concentration of half-maximal effect; tags give direction and shape of the fitted curve or compound fluorescence and quenching.
row,Structure (SMILES),Potency
1,CSc1ccc(Oc2ccc(S(N)(=O)=O)cc2CN(C)C)cc1C,"inconclusive: 68.6 µM [falling, single point]"
2,CCN(O)CC,inactive
3,CCOC(=O)CC(=O)c1cc(F)c(Cl)nc1Cl,inactive
4,c1ccc(CN(Cc2ccccc2)Cc2ccccc2)cc1,inactive

# Experiment: qHTS assay for small molecule disruptors of the mitochondrial membrane potential - cell viability (AID 720634; calls by dose curve; note: nearly all actives have a fitted effect of over 20% in size)
# Conditions: HepG2 viability, ATP luminescence (CellTiter-Glo), 1 h; series mostly up to 83.2 µM
# Outline: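 Measuring cytotoxicity alongside mitochondrial potential, the screen quantified ATP by luminescence in HepG2 cells after 1 hr compound incubation and a 30 min room-temperature CellTiter-Glo step.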
row,Structure (SMILES),Potency
1,C[C@]12CCC(=O)C=C1[C@@H]1C[C@@H]1[C@H]1[C@@H]3[C@@H]4C[C@@H]4[C@@]4(CCC(=O)O4)[C@@]3(C)CC[C@@H]12,"inconclusive: 13.3 µM [cytotoxic, partial curve, poor fit]"
2,N#C/C(=C1/SC[C@@H](c2ccc(Cl)cc2Cl)S1)n1ccnc1,"inconclusive: 26.6 µM [cytotoxic, partial curve, poor fit] and inconclusive: 26.6 µM [cytotoxic]"
3,O=C(/C=C/c1ccccc1)NCCO,inactive
4,CSc1ccc(Oc2ccc(S(N)(=O)=O)cc2CN(C)C)cc1C,"inconclusive: 68.6 µM [cytotoxic, single point]"
5,CCCCCCCCOCCCN,inactive
6,O=C(Nc1ccc2c(c1)Cc1ccccc1-2)C(F)(F)F,inconclusive: 48.6 µM [cytotoxic]

# Experiment: qHTS assay for small molecule disruptors of the mitochondrial membrane potential (AID 720635)
# Conditions: HepG2 mitochondrial membrane potential, Mito-MPS dye ratio; ratio activity, negative = MMP loss: at 83.2 µM (top of the series) unless noted
# Outline: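 Mitochondrial membrane potential tracked with Mito-MPS dye, red aggregates (ex 540/em 590 nm) against green monomers (ex 490/em 535 nm). Compound treatment 1 hr at 37C, dye 30 min in HepG2.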
Structure (SMILES),"ratio activity, negative = MMP loss",Potency
C/C=C1\[C@H]2C=C(C)C[C@]1(N)c1ccc(=O)[nH]c1C2,inconclusive: 9.01%,
CC(=O)NO,inconclusive: -0.706%,
CN(C)CCOC(c1ccccc1)c1ccccc1,,"inconclusive: 10.6 µM [activator, partial curve, poor fit] and inconclusive: 69 µM [activator, partial curve] and inconclusive: 27.3 µM [activator, partial curve]"
CC[C@H](C)[C@@H](C(=O)O)n1sc2ccccc2c1=O,,"inconclusive: 68.6 µM [inhibitor, single point]"
OCc1ccccn1,inconclusive: 2.82%,
CCCCCCCCCCCCCCCCCBr,inconclusive: 17.8% [at 39.1 µM],
O=c1cc(CO)occ1O,,inactive
C[C@]12CCC(=O)C=C1[C@@H]1C[C@@H]1[C@H]1[C@@H]3[C@@H]4C[C@@H]4[C@@]4(CCC(=O)O4)[C@@]3(C)CC[C@@H]12,,"inconclusive: 11.9 µM [activator, full curve]"
CCCCCCOC(=O)CCC,,inactive
COC(=O)[C@@H]1[C@H]2C[C@H]3c4[nH]c5ccccc5c4CCN3C[C@@H]2CC[C@@H]1O,,inactive
CCC(C)C1CCCCC1=O (stereo unspecified),,inactive
N#C/C(=C1/SC[C@@H](c2ccc(Cl)cc2Cl)S1)n1ccnc1,inconclusive: -20.5%,"inconclusive: 26.6 µM [inhibitor, partial curve, poor fit] and active: 26.6 µM"
O=[N+]([O-])c1ccc(/C=N\O)o1,,"inconclusive: 1.33 µM [inhibitor, single point]"
O=C(/C=C/c1ccccc1)NCCO,,inactive
OC[C@@H](O)[C@H](O)[C@@H](O)[C@@H](O)CO,,"inconclusive: 0.969 µM [activator, full curve, poor fit]"
COC(C)(C)CC(C)=O,,"inconclusive: 17.2 µM [activator, partial curve, poor fit]"
Cc1ccc2ncccc2c1,,"inconclusive: 61.1 µM [rising, partial curve, poor fit]"
C=CCNC(N)=S,inconclusive: 26.3% and inconclusive: -14.2%,
CCCOCC(C)O (stereo unspecified),,active: 54.5 µM
CSc1ccc(Oc2ccc(S(N)(=O)=O)cc2CN(C)C)cc1C,,"inconclusive: 9.69 µM [activator, partial curve]"
C[N+](C)(C)CCOC(N)=O,,inactive
c1ccc(SCCSc2ccccc2)cc1,inconclusive: -35.4%,
CCCCCCCCOCCCN,,"inconclusive: 34.4 µM [activator, partial curve]"
CCCCCCCCCCCC(=O)N(C)CC(=O)O,inconclusive: 23%,
COc1cc(NC(=O)CC(C)=O)c(OC)cc1Cl,,"inconclusive: 68.9 µM [inhibitor, single point]"
c1ccc(CN(Cc2ccccc2)Cc2ccccc2)cc1,,active: 30.6 µM
CC(C)=CCC[C@H](C)CCO,,"inconclusive: 68.6 µM [inhibitor, single point]"
C=CC(C)CCC=C(C)C (stereo unspecified),inconclusive: 4.8%,
O=C(O)[C@H](O)[C@@H](O)[C@H](O)[C@H](O)CO,inconclusive: -20.8%,"inconclusive: 0.0131 µM [activator, partial curve, poor fit]"
